The source of these data is PubChem BioAssay AID1745853 (National Center for Advancing Translational Sciences (NCATS), 2022).

What all share (experiment): Primary Screen for Target Class Profiling of Small Molecule Inhibitors of Methyltransferases
For experiment [1], the target named is Glycine N-methyltransferase (Homo sapiens) (UniProt Q14749). The settings on record: purified enzyme, MTase-Glo SAH luminescence; measured here: GNMT inhibition; at 40 µM; stronger effect = lower value. The method, boiled down: (§1)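 Each enzyme was reacted with SAM and its substrate, with compounds tested once at 40 uM; SAH formed was read by MTase-Glo luminescence.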

In experiment [2] the target is Guanidinoacetate N-methyltransferase (Homo sapiens) (UniProt Q14353). The settings on record: purified enzyme, MTase-Glo SAH luminescence; measured here: GAMT inhibition; at 40 µM; stronger effect = lower value. The gist of the method:
as §1

Experiment [3] deals with Histamine N-methyltransferase (Homo sapiens) (UniProt P50135). Conditions: purified enzyme, MTase-Glo SAH luminescence; measured here: HNMT inhibition; at 40 µM; stronger effect = lower value. The method, boiled down: as §1
Experiment [4] concerns the target Nicotinamide N-methyltransferase (Homo sapiens) (UniProt P40261). The settings on record: purified enzyme, MTase-Glo SAH luminescence; measured here: NNMT inhibition; at 40 µM; stronger effect = lower value. The gist of the method:
as §1

Experiment [5] addresses Phenylethanolamine N-methyltransferase (Homo sapiens) (UniProt P11086). The settings on record: purified enzyme, MTase-Glo SAH luminescence; measured here: PNMT inhibition; at 40 µM; stronger effect = lower value. The method, boiled down:
as §1

“And” between values parts separate entries of the source, which are not always exact repeats. Equal values may be shown once. Some of the results follow. The main result of the screen is listed elsewhere. These columns were measured beside it and carry no call.
% is set by controls: 0 for no effect and ±100 for the full control effect.

In the case of `Cc1ccc(S(=O)(=O)c2nnn3c2nc(NC2CCCC2)c2ccccc23)cc1`, the activity change, negative = inhibition in experiment [1] was -3.45%; in experiment [2], 4.96%; in experiment [3] it was 0.14%; in experiment [4], -10.9%; in experiment [5], -2.76%.

As to `CNC(=O)c1cc(Oc2ccc3nc(N[C@@H]4CCCC[C@H]4O)sc3c2)ccn1`, the activity change, negative = inhibition in experiment [1] is -11.5%; in experiment [2] it was -13.4%; in experiment [3], -0.743%; in experiment [4], -27.2%; in experiment [5] it was -13.4%.

`COc1ccc(OC)c(CNC(=O)c2cc3n(n2)CC(C)(C(=O)NCc2ccc(C)cc2)N(C)C3=O)c1` (stereo not given): the activity change, negative = inhibition was 0.813% in experiment [1]; 5.29% in experiment [2]; 4.17% in experiment [3]; -1.7% in experiment [4]; 2.21% in experiment [5].

For the compound `O=Nc1ccc2oc(=O)ccc2c1`, the activity change, negative = inhibition was -53% in experiment [1]; 4.58% in experiment [2]; -3.22% in experiment [3]; -3.15% in experiment [4]; 6.21% in experiment [5].

For the compound `Cn1nc(C2CCN(C(=O)NCc3ccccc3)CC2)c2c1CCOC2`, the activity change, negative = inhibition in experiment [1] was -0.563%; in experiment [2], -2.43%; in experiment [3], 0.256%; in experiment [4] it was -5.32%; in experiment [5], -0.301%.

Consider `CC(C)CCn1c(=O)c2ccccc2n2c(=O)n(CC(=O)NCc3ccccc3)nc12`, for which the activity change, negative = inhibition is -1.88% in experiment [1]; 2.13% in experiment [2]; 3.5% in experiment [3]; -2.15% in experiment [4]; -1.91% in experiment [5].

Take `CCCCCC(=O)N1CC[C@@H](CC(=O)N(C)CC#N)[C@@H](CC)C1`: the activity change, negative = inhibition was -5.4% in experiment [1]; -9.22% in experiment [2]; -12.6% in experiment [3]; -18.2% in experiment [4]; 3.99% in experiment [5].

Take `COCCCNC(=O)C1(C)Cn2nc(-c3ccccc3)cc2C(=O)N1Cc1cccc(OC)c1` (stereo not given): the activity change, negative = inhibition in experiment [1] was 0.204%; in experiment [2] it was -0.356%; in experiment [3], 3.38%; in experiment [4] it was -3.54%; in experiment [5] it was -4.17%.

Turning to `O=[N+]([O-])c1ccc(CSc2ncnc3c2ncn3[C@@H]2O[C@H](CO)[C@@H](O)[C@H]2O)cc1`, the activity change, negative = inhibition in experiment [1] is -5.85%; in experiment [2] it was 0.076%; in experiment [3] it was -4.27%; in experiment [4], -11.2%; in experiment [5], -9.25%.

For `CCCCOc1ccccc1-c1cc2n(n1)CC(C)(C(=O)NC1CCCCC1)N(CCOC)C2=O` (stereo not given), the activity change, negative = inhibition is 0.63% in experiment [1]; 0% in experiment [2]; 4.69% in experiment [3]; 0.21% in experiment [4]; -0.343% in experiment [5].

`O=C(c1ccc(=O)[nH]n1)N1CCCC(c2ccn[nH]2)C1` (stereo not given): the activity change, negative = inhibition was -1.79% in experiment [1]; -2.32% in experiment [2]; -2.04% in experiment [3]; -4.3% in experiment [4]; -2.95% in experiment [5].

Turning to `CC(=O)c1c(C)c2cnc(Nc3ccc(N4CCNCC4)cn3)nc2n(C2CCCC2)c1=O`, the activity change, negative = inhibition in experiment [1] was 3.81%; in experiment [2], 5.95%; in experiment [3] it was 5.25%; in experiment [4] it was -6.75%; in experiment [5], 2.6%.

As for `COc1cc(-c2ccc(O)cc2)c(OC)c(O)c1C1=CC(=O)OC1CC(=O)O` (stereo not given), the activity change, negative = inhibition in experiment [1] was -3.97%; in experiment [2] it was -1.66%; in experiment [3], 9.58%; in experiment [4], -14.1%; in experiment [5], -7.62%.

Regarding `C1CCc2nnnn2CC1`, the activity change, negative = inhibition in experiment [1] was -5.81%; in experiment [2] it was 4.5%; in experiment [3] it was -1.23%; in experiment [4], -7.54%; in experiment [5] it was 4.99%.

Take `COc1ccc(C(=O)Nc2ccc3c(c2)CN(CCc2ccccc2)C(=O)C(C)O3)cc1OC` (stereo not given): the activity change, negative = inhibition in experiment [1] was -19.7%; in experiment [2], 0.845%; in experiment [3], -8.35%; in experiment [4], -7.44%; in experiment [5], -23.3%.

Take `COc1ccc(CNC(=O)C2(C)Cn3cnc(C(=O)Nc4ccc(Cl)cn4)c3C(=O)N2C2CC2)cc1` (stereo not given): the activity change, negative = inhibition in experiment [1] is -0.563%; in experiment [2] it was 1.55%; in experiment [3], 11.2%; in experiment [4] it was -0.315%; in experiment [5], 8.63%.

For `Clc1ccc2c(N3CCN(CCCN4CCN(c5ccnc6cc(Cl)ccc56)CC4)CC3)ccnc2c1`, the activity change, negative = inhibition was -8.57% in experiment [1]; 2.06% in experiment [2]; -2.58% in experiment [3]; -5.93% in experiment [4]; 5.61% in experiment [5].

`Cc1ccc(C)c(N2C(=O)c3cc(C4CC4)nn3CC2(C)C(=O)NC2CCCCCC2)c1` (stereo not given): the activity change, negative = inhibition in experiment [1] is -2.1%; in experiment [2], 4.24%; in experiment [3], -2.57%; in experiment [4] it was -1.34%; in experiment [5] it was 1.1%.

With `COC(=O)c1cc2n(n1)CC(C)(C(=O)NC1CCC(C)CC1)N(Cc1ccc(C)cc1)C2=O` (stereo not given), the activity change, negative = inhibition in experiment [1] was 4.79%; in experiment [2] it was 1.41%; in experiment [3], 8.42%; in experiment [4], 2.43%; in experiment [5], 4.38%.

As for `Cc1ccc(-c2noc(-c3cccc(S(=O)(=O)N4CCN(c5cccc(C)c5)C(C)C4)c3)n2)cc1` (stereo not given), the activity change, negative = inhibition is 15.8% in experiment [1]; 0% in experiment [2]; 11.5% in experiment [3]; 1.8% in experiment [4]; 6.55% in experiment [5].

For `CN(C)S(=O)(=O)N1CCOCCNC(=O)[C@@H]2CCC[C@@H]21`, the activity change, negative = inhibition in experiment [1] was -3.72%; in experiment [2] it was -0.231%; in experiment [3], 1.03%; in experiment [4], -0.379%; in experiment [5], 11.3%.

For `COc1ccc(-c2nc(-c3cc(C(F)(F)F)cc(C(F)(F)F)c3)n(Cc3ccc(C(N)=O)cc3)c2-c2ccc(OC)cc2)cc1`, the activity change, negative = inhibition is 3.26% in experiment [1]; -36.2% in experiment [2]; 2.02% in experiment [3]; -52.6% in experiment [4]; -12.6% in experiment [5].

Regarding `CCN1C[C@H](C)n2c(c(O)c3c(=O)n(Cc4ccc(F)c(Cl)c4)nc(C(=O)NC)c32)C1=O`, the activity change, negative = inhibition in experiment [1] is 3.74% and 3.95%; in experiment [2], 6.59% and 7.42%; in experiment [3], 15.3% and 11.4%; in experiment [4], -9.22% and -8.84%; in experiment [5] it was 2.66% and 4.29%.

In the case of `Cc1ccc(N2C(=O)c3cc4occc4n3CC2(C)C(=O)NC2CCCCC2)cc1C` (stereo not given), the activity change, negative = inhibition was -6.05% in experiment [1]; 0% in experiment [2]; 0.028% in experiment [3]; 5.23% in experiment [4]; -2.65% in experiment [5].

Consider `COc1ccc2cc(C(C)C(=O)Oc3ccc(C(N)=S)cc3)ccc2c1` (stereo not given), for which the activity change, negative = inhibition in experiment [1] is -5.44%; in experiment [2] it was -6.78%; in experiment [3], 6.22%; in experiment [4], -23.1%; in experiment [5], -1.52%.

Consider `CCCCNC(=O)c1ccc2c(=O)nc3c(-c4ccc(OC)cc4)n[nH]n3c2c1`, for which the activity change, negative = inhibition stood at 1.14% in experiment [1]; 0% in experiment [2]; 8.24% in experiment [3]; 8.29% in experiment [4]; 3.47% in experiment [5].

For `CC(C)N1CCN(C(=O)c2cc3cn(C4CC4)cc3s2)CC1`, the activity change, negative = inhibition was -10.2% in experiment [1]; -6.94% in experiment [2]; -10.6% in experiment [3]; -3.56% in experiment [4]; -23.5% in experiment [5].

Take `Clc1ccccc1CNCC1CCC(CNCc2ccccc2Cl)CC1` (stereo not given): the activity change, negative = inhibition was 3.46% in experiment [1]; 15.5% in experiment [2]; 0.955% in experiment [3]; -9.52% in experiment [4]; 0.676% in experiment [5].

For the compound `CCOC(=O)c1cc2n(n1)CC(C)(C(=O)NC1CCCCCC1)N(c1ccc(F)cc1C)C2=O` (stereo not given), the activity change, negative = inhibition came to 9.91% in experiment [1]; 2.1% in experiment [2]; 6.65% in experiment [3]; 10.6% in experiment [4]; 5.07% in experiment [5].
